For 82 compounds, activation results are on record in PubChem BioAssay AID1346428 (National Center for Advancing Translational Sciences (NCATS), 2018).

“And” between values parts separate entries of the source, which are not always exact repeats. Equal values may be shown once. Screen size: about 48,000 compounds; about 1,200 (2.5%) were called active. Another 2% or so got no clear call; they are omitted.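 How the source made its calls: active means activation of at least 60% and not above a set upper limit (about 1 call in 100 departs from these limits); inconclusive means activation of 40% to 60%, or above that upper limit; inactive means activation under 40%.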 Some of the results follow.

Chain of UniProt O75388 (O75388 whole entry, looked up): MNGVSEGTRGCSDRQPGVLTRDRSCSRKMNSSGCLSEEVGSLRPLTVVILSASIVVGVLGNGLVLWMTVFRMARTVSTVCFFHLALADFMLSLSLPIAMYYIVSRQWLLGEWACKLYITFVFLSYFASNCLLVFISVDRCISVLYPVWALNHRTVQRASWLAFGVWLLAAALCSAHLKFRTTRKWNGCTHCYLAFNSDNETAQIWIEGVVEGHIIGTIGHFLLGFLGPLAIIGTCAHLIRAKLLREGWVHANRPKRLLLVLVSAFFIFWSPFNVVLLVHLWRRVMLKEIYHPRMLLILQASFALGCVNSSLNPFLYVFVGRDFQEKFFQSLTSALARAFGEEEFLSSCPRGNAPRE

The assay deals with Probable G-protein coupled receptor 32 (Homo sapiens) (UniProt O75388). Put plainly: qHTS for Agonists of Human Resolvin D1 Receptor DRV1. Conditions: CHO-K1 GPR32 beta-arrestin PathHunter luminescence, 90 min; at 76.9 µM; stronger effect = higher value; zero percent set by DMSO-only wells. A digest of the protocol:
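Using DMSO wells as EC0, agonist-induced signal was taken as chemiluminescence from beta-Gal reconstituted upon beta-arrestin recruitment to GPR32 in CHO-K1 cells after 90 min compound treatment.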
On the technique in general: Quantitative high-throughput screening tests each substance at several concentrations.
Take `COc1cccc(N2CC(NC(=O)c3cc4ccccc4o3)CC2=O)c1` (configuration not stated): the activation was inactive: -8.31%.
Regarding `CC(C)c1ccc2c(c1)NC(c1ccc(F)cc1)=NC(c1cccs1)=N2`, the activation was inactive: -35.8%.
As for `Cc1ccc(NC(=O)Nc2nnc(SCC(=O)N3CCCCC3)s2)cc1`, the figure is inactive: -7.54%; as for `Cc1cccc(C(=O)NCCc2nc3ccccc3n2Cc2ccccc2Cl)c1`, inactive: 2.97%; as for `Cc1cc(Nc2cccc(C(F)(F)F)c2)nc2ccc(NC(=O)Cc3ccc(Cl)cc3)cc12`, inactive: 19.3%.
As for `Cc1nc2ncnn2c(C)c1CCC(=O)N1CCN(c2ccc(F)cc2)CC1`, the figure is inactive: -1.37%; as for `COc1cccc(CNC(=O)N2CCc3c(sc4c3CCCC4)C2c2ccc(F)cc2)c1` (configuration not stated), inactive: 22.1%; as for `CCOc1ccccc1CNC(=O)CSc1n[nH]c(-c2ccccc2)n1`, inactive: -10.5%.
As for `O=C(CSc1nnc(-c2ccncc2)n1-c1ccccc1)Nc1ccc(F)cc1`, the figure is inactive: 9.1%; as for `CCOC(=O)CCc1c(C)nc2c(-c3ccccc3)c(C)[nH]n2c1=O`, inactive: -22.5%.
As for `COc1ccc(OC)c(C2C(C(=O)Nc3ccc(C)cc3C)=C(C)Nc3c(C(=O)Nc4ccc(F)cc4)cnn32)c1` (configuration not stated), the activation is inactive: -11%.
As for `CCn1c2c(c(=O)n3ncc(C(=O)N4CCN(c5ccccc5)CC4)c13)CN(Cc1ccc(OC)cc1)CC2`, the figure is inactive: -23.3%; as for `CC(C)c1noc(-c2ccccc2OCC(=O)Nc2ccc([N+](=O)[O-])cc2)n1`, inactive: -15.8%; as for `COc1ccc(Cl)cc1NC(=O)CSc1nc(=O)n(Cc2ccco2)c2c1CCC2`, inactive: -4.73%.
As for `CC(C)NCC(O)c1ccc(O)c(O)c1` (configuration not stated), the figure is inactive: -0.798% and inactive: -1.44%; as for `CCOC(=O)c1ccccc1NC(=O)c1cn(CC(C)C)c(=O)c2cc(OC)c(OC)cc12`, inactive: 1.73%.
As for `Nc1ccc(O)cc1`, the figure is inactive: 14.6%; as for `COc1ccc(N2CCN(S(=O)(=O)c3ccc(C4CCCCC4)cc3)CC2)cc1`, inactive: -5.92%.
For `Cc1ccc(OCC(=O)Nc2nnc(S(=O)(=O)N3CCc4ccccc43)s2)cc1`, the activation is inactive: 12.7%.
As for `COc1ccc(OC)c(-c2noc(CSc3nnc(-c4ccccc4)n3-c3ccccc3)n2)c1`, the figure is inactive: 8.51%; as for `Cc1ccc(-n2ncc3c(Nc4ccc(Oc5ccccc5)cc4)ncnc32)c(C)c1`, inactive: 16.8%.
To `CCOCCCNC(=O)c1c[nH]c2ccc(S(=O)(=O)N(C)c3ccc(Cl)cc3F)cc2c1=O` belongs inactive: 3.64%; to `CN1CCN(C(CNC(=O)C(=O)Nc2ccc(Cl)cc2)c2cccnc2)CC1` (configuration not stated), inactive: 8.09%; to `Cc1ccc(C)c(N2CCN(C(=O)CCc3nnc4n(C)c(=O)c5ccccc5n34)CC2)c1`, inactive: -16.8%.
As for `CCOC(=O)c1ccc(NC(=O)c2c(NCc3sccc3C)sc3c2CCC(C)C3)cc1` (configuration not stated), the figure is inactive: 10.1%.
As for `NC(=O)c1nc(Nc2ccccc2)sc1NC(=O)c1c(F)cccc1F`, the activation was inactive: -1.74%.
As for `CCOC(=O)c1cccnc1SCC(=O)N(CC)c1cccc(C)c1`, the activation was inactive: -4.79%.
As for `COc1ccc(F)cc1S(=O)(=O)NCC(c1ccco1)S(=O)(=O)c1cccs1` (configuration not stated), the figure is inactive: -28.9%; as for `CC(C)(C)c1ccc(OCC(=O)Nc2ccc(C(=O)OC3CCCCC3)cc2)cc1`, inactive: -4.84%.
As for `CCc1ccccc1NC(=O)c1oc(=O)c2ccccc2c1-c1ccccc1`, the figure is inactive: -26.8%; as for `CC(C)Cn1nc(NC(=O)c2cccc(Cl)c2)c2cc3ccccc3nc21`, inactive: -7.68%.
As for `CCCCCN(CCCCC)C(=O)C(CCC(=O)O)NC(=O)c1ccc(Cl)c(Cl)c1` (configuration not stated), the figure is inactive: 32.2% and inactive: -0.0349%; as for `CCCCOc1cccc(C(=O)Nc2sc3c(c2C(=O)OCC)CCCC3)c1`, inactive: -1.85%.
On to `Cc1ccc2nc3c(cc(C#N)c(=O)n3-c3nnc(SCc4ccc(F)cc4)s3)c(=O)n2c1`, for which the activation was inactive: 7.28%.
To `Cc1cccc2c(=O)cc(CSc3ccccc3NC(=O)C(C)C)[nH]c12` belongs inactive: -10.4%.
To `COc1cccc(NC(=O)CSc2nc(=O)n(Cc3cccnc3)c3c2CCC3)c1` belongs inactive: -13.7%; to `Cc1ccc(Sc2ccc(N3CCCC(C(=O)Nc4ccc(F)c(Cl)c4)C3)nn2)cc1` (configuration not stated), inactive: 27.3%.
As for `COc1ccc(CCNC(=O)CCCCn2c(=O)c3ccccc3n(Cc3cc(C)ccc3C)c2=O)cc1OC`, the figure is inactive: -4.73%; as for `CCCN(CCC)C(=O)Cn1c(=O)n(-c2ccc(OC)cc2OC)c(=O)c2c3c(sc21)CCC3`, inactive: -25.5%; as for `CCOc1ccc(CNC(=O)c2ccc3c(c2)c(C)c(C)n3C)cc1`, inactive: -19.1%.
With `CCOc1ccccc1NC(=O)Cn1c(=O)n(CC(=O)NCc2ccccc2Cl)c(=O)c2sccc21`, the activation is inactive: 11.6%.
With `COc1ccc(OCC(=O)Nc2ccc(-c3nc4cc(Cl)ccc4o3)cc2)cc1`, the activation was inactive: 3.24%.
To `CCCn1c2ccccc2c2cnn(CC(=O)NCC3CCN(Cc4ccc(C)cc4)CC3)c(=O)c21` belongs inactive: -0.152%.
To `CCOc1ccc(-n2c(SCc3ccccc3)nc3c([nH]c4ccccc43)c2=O)cc1` belongs inactive: -18.1%; to `CC(C)C1N=C2c3ccccc3N=C(SCC(=O)NCc3ccc(Cl)cc3)N2C1=O` (configuration not stated), inactive: -18.9%; to `O=C(Nc1ccc2c(c1)CCCN2C(=O)c1cccs1)c1ccccc1`, inactive: -8.69%.
As for `O=C(Cn1c(=O)n(Cc2ccccc2)c(=O)c2sc3ccccc3c21)Nc1ccccc1F`, the figure is inactive: -5.09%.
For `O=C(NC1CCCc2ccccc21)c1ccc2c(c1)sc1nc(-c3ccccc3)cn12` (configuration not stated), the activation is inactive: -17.6%.
As for `CC(=O)N1CCOc2cc(S(=O)(=O)NCc3ccc(F)cc3)c(C)cc21`, the figure is inactive: 20.9%.
As for `COc1ccc(-n2nc(C(=O)N3CCN(c4ccccc4OC)CC3)c3c4ccccc4n(C)c3c2=O)cc1Cl`, the figure is inactive: -5.3%; as for `COc1ccccc1CNC(=O)CCCN1C(=O)CSc2c1c(C)nn2-c1ccccc1`, inactive: -17.7%; as for `COc1cccc(Oc2nc(C)nc3c2oc2ccccc23)c1`, inactive: -14.5%.
As for `Cc1c(C(=O)NCc2cccc(Cl)c2)sc2nc[nH]c(=O)c12`, the figure is inactive: -10.2%.
As to `CCOc1ccccc1NC(=O)C1CCN(S(=O)(=O)c2cccs2)CC1`, the activation is inactive: 18.8%.
As for `CC(CNC(=O)CCc1cn(Cc2ccccc2Cl)c2ccccc12)c1ccccc1` (configuration not stated), the figure is inactive: -29.8%.
As for `CCCS(=O)(=O)c1nc(S(=O)(=O)c2ccc(C)cc2)c(NCc2ccccc2Cl)s1`, the figure is inactive: -20.1%; as for `Cc1nc(N2CCCC2)c2c(C(=O)Nc3cccc(Cl)c3)c(C)oc2n1`, inactive: -10.3%.
As for `CCOc1ccc(NC(=O)Cn2ccn3nc(-c4ccc(OC)c(OC)c4)cc3c2=O)cc1`, the figure is inactive: -5.95%; as for `Cc1cc(C)cc(NC(=O)Nc2ccc3nc(N4CCN(C)CC4)cc(C)c3c2)c1`, inactive: 14%.
Consider `CC1(C)CC(=O)c2cc(C#N)c(=O)n(-c3ccc(Cl)cc3)c2C1`, for which the activation is inactive: -0.962%.
To `CCc1ccc(NC(=O)c2ccc(F)c(S(=O)(=O)N3CCN(c4ccc(OC)cc4)CC3)c2)cc1` belongs inactive: -12.2%.
To `Cc1ccsc1CN(C(=O)c1ccc(OCC(C)C)cc1)C1CCS(=O)(=O)C1` (configuration not stated) belongs inactive: -20%.
As for `O=C(O)CCC(=O)Nc1sc2c(c1C(=O)Nc1ccccc1)CCCCC2`, the figure is inactive: 5.75%.
Regarding `COc1ccc(NC(=O)Cn2cc(C(=O)c3ccccc3)c(=O)c3cc(OC)ccc32)c(OC)c1`, the activation was inactive: -8.86%.
As for `Cc1ccc2oc(-c3cccc(NC(=O)Cc4ccc(Cl)cc4)c3)nc2c1`, the figure is inactive: -5.12%.
As for `CCOC(=O)c1cccc(NS(=O)(=O)c2cc(-c3cnc(C4CC4)o3)ccc2C)c1`, the figure is inactive: 6.98%; as for `Cc1ccc(-n2c3nc(=O)[nH]c(=O)c-3cc3c(C)nn(-c4ccccc4)c32)cc1C`, inactive: 2.31%.
In the case of `CCOC(=O)c1c(S(=O)(=O)N2CCCC(C(=O)Nc3ccc(C)cn3)C2)c(C)n(C)c1C` (configuration not stated), the activation was inactive: -7.99%.
As for `Cc1c(C(=O)OC(C)C)sc(NC(=O)C2c3ccccc3Oc3ccccc32)c1C(=O)OC(C)C`, the figure is inactive: 3.54%; as for `Cc1ccc(Sc2c(C)nn(C(=O)c3ccc(Cl)cc3)c2C)cc1`, inactive: -9.96%; as for `CCCCN(CCCC)CCC(O)c1cc2c(Cl)cc(Cl)cc2c2cc(C(F)(F)F)ccc12` (configuration not stated), active: 98.9%.
As for `C#C[C@]1(O)CC[C@H]2[C@@H]3CCc4cc(O)ccc4[C@H]3CC[C@@]21C`, the figure is inactive: 33.5%.
To `COCCCNC(=O)CCCn1c(SCC(=O)c2ccc(F)cc2)nc2c(sc3ccccc32)c1=O` belongs inactive: 5.09%; to `COc1ccc(CNC(=O)CSc2ncc3c(n2)-c2ccc(Cl)cc2N(Cc2ccc(F)cc2)S3(=O)=O)cc1OC`, inactive: -28.4%; to `CCOc1cc(Br)cc(C2NC(=O)c3c(sc4c3CCN(C)C4)N2)c1O` (configuration not stated), inactive: -0.186%.
As for `CN(C)c1ccc(CNC(=O)c2ccc(Cn3c(=O)c4cccn4c4cccnc43)cc2)cc1`, the activation was inactive: -8.55%.
To `CC(C)(C)c1ccc(C(=O)NCC(c2ccco2)S(=O)(=O)c2ccc(F)cc2)cc1` (configuration not stated) belongs inactive: -19.8%; to `O=C(CSc1c2c(nc3ccccc13)CCC2)Nc1ccc(F)cc1`, inactive: -17.3%.
`COc1ccc(Cn2c(C(=O)O)c(CNCc3ccco3)c3ccc(OC)cc32)cc1`: the activation is inactive: 31.3%.
With `COc1ccc(-n2cnc3cc(C(=O)NC4CCCC4)ccc32)cc1`, the activation is inactive: 13.9%.
As for `CCOC(=O)c1ccc(NC(=O)CSc2nnc3c4ccccc4n(CC)c3n2)cc1`, the figure is inactive: 14.1%.
As for `CCCOc1ccc(C(=O)N(Cc2ccccc2Cl)C2CCS(=O)(=O)C2)cc1` (configuration not stated), the figure is inactive: -12.3%.
